These are yes or no findings as the source states them, for the method shown. In cells and extracts the contact can be indirect. Some results given as binding are weak or reduced against the parent protein; the word gives no strength. For some of these results: Tags and fused reporters may be left off the sequences shown. One block for each molecule: values may come before it.
What was measured:
[1] = biological target: T1, exogenous CRB3b (CRB3-GFP) stably expressed in MCF10A cells (human) (UniProt Q9BUF7); experiment: co-IP; MCF10A cells expressing exogenous CRB3b (CRB3-GFP); lysate in NP40 buffer, Dynabeads protein G kit, immunoblot; baits exogenous CRB3b or Rab11
T1 sequence: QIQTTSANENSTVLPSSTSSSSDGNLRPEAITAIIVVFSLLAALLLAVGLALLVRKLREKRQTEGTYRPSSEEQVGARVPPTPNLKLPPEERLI

Protein sequences, listed by entry. Tags and fused reporters are not part of them. Lines headed by an entry give the natural chain unless they say otherwise; changes in a name come on top.
UniProt P62491: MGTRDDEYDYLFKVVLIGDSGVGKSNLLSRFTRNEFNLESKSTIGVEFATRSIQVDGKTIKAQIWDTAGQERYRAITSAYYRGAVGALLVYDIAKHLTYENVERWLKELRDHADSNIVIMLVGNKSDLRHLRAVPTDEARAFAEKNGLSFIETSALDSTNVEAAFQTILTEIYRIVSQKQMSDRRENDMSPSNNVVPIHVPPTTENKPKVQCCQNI
UniProt O15078: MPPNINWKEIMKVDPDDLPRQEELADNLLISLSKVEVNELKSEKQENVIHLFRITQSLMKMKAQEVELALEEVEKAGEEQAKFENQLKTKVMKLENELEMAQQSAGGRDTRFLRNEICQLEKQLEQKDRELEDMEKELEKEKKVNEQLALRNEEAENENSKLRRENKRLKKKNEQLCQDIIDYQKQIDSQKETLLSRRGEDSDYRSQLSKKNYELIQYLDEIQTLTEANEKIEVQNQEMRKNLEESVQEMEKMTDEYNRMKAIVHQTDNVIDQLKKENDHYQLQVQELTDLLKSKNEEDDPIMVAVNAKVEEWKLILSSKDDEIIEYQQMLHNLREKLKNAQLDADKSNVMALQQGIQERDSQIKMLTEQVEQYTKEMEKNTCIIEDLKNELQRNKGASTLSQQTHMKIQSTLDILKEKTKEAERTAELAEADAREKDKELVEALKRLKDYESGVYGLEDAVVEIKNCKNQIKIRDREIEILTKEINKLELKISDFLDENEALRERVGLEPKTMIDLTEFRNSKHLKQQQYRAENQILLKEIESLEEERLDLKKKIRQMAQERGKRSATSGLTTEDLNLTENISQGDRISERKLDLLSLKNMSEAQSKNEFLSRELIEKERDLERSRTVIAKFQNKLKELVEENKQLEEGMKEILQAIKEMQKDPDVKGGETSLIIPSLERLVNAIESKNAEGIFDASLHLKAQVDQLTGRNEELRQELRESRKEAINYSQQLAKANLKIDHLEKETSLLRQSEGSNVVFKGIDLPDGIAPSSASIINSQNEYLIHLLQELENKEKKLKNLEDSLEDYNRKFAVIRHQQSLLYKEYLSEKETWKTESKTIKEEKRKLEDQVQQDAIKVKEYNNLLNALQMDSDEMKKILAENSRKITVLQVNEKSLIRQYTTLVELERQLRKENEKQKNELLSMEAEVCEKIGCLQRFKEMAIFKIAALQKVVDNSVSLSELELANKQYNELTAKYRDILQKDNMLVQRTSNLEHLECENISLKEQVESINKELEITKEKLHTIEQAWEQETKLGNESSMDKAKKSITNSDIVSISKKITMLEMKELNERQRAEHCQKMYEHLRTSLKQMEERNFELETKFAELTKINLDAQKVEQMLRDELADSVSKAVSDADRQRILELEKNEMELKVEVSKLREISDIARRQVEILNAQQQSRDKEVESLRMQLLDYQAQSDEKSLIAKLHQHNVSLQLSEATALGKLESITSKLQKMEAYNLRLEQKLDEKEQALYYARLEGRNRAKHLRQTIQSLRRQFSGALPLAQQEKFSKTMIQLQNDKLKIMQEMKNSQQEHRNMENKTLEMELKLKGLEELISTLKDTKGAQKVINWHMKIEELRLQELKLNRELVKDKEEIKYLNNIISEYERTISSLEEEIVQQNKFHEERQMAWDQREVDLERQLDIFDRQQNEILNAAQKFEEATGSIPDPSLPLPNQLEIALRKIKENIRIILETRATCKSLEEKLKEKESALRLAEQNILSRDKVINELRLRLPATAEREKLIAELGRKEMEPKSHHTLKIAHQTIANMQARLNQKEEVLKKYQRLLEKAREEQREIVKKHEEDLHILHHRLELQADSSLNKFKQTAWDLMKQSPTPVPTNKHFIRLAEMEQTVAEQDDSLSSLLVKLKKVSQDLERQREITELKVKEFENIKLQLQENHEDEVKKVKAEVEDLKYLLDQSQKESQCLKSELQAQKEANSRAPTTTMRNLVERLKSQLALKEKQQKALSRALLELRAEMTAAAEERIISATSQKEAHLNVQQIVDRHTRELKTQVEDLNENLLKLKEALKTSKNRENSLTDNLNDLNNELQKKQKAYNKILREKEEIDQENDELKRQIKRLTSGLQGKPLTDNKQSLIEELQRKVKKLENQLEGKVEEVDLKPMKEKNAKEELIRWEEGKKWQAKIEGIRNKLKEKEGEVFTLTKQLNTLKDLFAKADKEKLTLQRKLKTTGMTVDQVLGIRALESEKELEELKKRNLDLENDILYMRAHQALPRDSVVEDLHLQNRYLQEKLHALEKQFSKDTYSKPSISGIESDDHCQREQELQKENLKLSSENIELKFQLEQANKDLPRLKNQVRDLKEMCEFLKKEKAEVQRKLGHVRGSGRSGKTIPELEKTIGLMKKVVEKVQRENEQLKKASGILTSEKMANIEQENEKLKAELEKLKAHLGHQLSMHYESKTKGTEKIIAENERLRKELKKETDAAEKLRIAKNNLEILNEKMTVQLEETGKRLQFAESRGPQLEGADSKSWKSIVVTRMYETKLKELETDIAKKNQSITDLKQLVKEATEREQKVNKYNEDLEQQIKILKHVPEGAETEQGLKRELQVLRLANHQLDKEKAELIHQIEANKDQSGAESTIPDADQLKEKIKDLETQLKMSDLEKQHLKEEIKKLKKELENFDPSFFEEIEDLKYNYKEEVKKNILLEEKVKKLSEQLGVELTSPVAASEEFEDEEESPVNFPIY
UniProt Q96CW5: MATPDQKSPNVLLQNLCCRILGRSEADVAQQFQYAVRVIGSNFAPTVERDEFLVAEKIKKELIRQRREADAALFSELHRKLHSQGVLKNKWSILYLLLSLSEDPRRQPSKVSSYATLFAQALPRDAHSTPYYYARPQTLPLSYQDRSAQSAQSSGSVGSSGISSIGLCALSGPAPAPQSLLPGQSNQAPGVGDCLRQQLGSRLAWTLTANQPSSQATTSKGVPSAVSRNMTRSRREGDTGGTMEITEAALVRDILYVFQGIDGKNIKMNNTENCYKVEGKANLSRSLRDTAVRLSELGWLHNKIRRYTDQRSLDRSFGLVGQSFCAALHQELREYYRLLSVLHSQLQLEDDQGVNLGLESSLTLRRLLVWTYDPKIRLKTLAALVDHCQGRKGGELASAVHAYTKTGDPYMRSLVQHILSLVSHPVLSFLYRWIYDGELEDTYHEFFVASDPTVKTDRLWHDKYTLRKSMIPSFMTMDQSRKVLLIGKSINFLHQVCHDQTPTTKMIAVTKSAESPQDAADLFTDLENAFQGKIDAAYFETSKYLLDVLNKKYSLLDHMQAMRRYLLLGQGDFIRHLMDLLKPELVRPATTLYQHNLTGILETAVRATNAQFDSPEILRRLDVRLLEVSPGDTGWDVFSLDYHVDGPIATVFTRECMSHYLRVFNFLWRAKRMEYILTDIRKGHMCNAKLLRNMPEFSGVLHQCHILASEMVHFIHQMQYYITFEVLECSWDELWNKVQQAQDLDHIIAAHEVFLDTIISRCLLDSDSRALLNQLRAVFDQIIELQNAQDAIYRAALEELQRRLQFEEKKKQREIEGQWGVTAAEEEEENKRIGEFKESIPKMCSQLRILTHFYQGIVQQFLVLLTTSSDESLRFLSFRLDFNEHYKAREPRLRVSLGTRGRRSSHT

[2] = biological target: T2, CRB3 (endogenous, MCF10A cells) (human (endogenous in MCF10A)) (UniProt Q9BUF7); experiment: co-IP; endogenous proteins in MCF10A lysate (NP40 buffer), Dynabeads protein G kit, immunoblot; baits CRB3, Rab11 or GCP6; control shRNA and CRB3 knockdown cells
T2 sequence: T1 sequence

[3] = biological target: Flag-Rab11a[Q70L] (UniProt P62491); experiment: co-IP; Flag antibody co-IP from HEK293 cells cotransfected for 48 hr with CRB3b-GFP constructs and Flag-Rab11a variants; immunoblot with GFP and Flag antibodies
[4] = biological target: Flag-Rab11a[S20V] (UniProt P62491); experiment: as above
[5] = biological target: Flag-Rab11a (wild type) (UniProt P62491); experiment: as above
[6] = biological target: Flag-Rab11a[S25N] (UniProt P62491); experiment: as above

Molecule: CEP290 (endogenous, MCF10A cells) (from UniProt O15078 1-2479)
binding [1]: binds

Molecule: QIQTTSANENSTVLPSSTSSSSDGNLRPEAIT (domain or fragment, UniProt Q9BUF7 27-58) [CRB3 (1–58) GFP fusion]
binding [5]: binds

B2: CRB3 (1–83) GFP fusion (domain or fragment, UniProt Q9BUF7 27-83)
chain: QIQTTSANENSTVLPSSTSSSSDGNLRPEAITAIIVVFSLLAALLLAVGLALLVRKL
binding [5]: binds

B3: CRB3 (1–116) GFP fusion (domain or fragment, UniProt Q9BUF7 27-116)
chain: QIQTTSANENSTVLPSSTSSSSDGNLRPEAITAIIVVFSLLAALLLAVGLALLVRKLREKRQTEGTYRPSSEEQVGARVPPTPNLKLPPE
binding [5]: binds

Molecule: MANPGLGLLLALGLPFLLARWGRAWG (domain or fragment, UniProt Q9BUF7 1-26) [CRB3 (1–26) GFP fusion]
binding [5]: no binding

Second part, the molecule after the results:

binding [2]: no binding
Molecule: GCP3 (endogenous, MCF10A cells) (from UniProt Q96CW5 1-907)

binding [3]: binds
binding [4]: binds
binding [5]: binds
binding [6]: binds weakly
B1: full-length CRB3b-GFP (1–120), expressed in HEK293 cells (protein, UniProt Q9BUF7 27-120)
chain: T1 sequence
